Test results as given in US20250368649A1, “TETRAHYDROPYRIDOPYRIMIDINE PAN-KRAS INHIBITORS” (Mirati Therapeutics, Inc., priority 2022, published 2025).

Legend:
KRas Q61H = KRas Q61H (Homo sapiens, UniProt P01116, Q61H); test: KRas binding assay (TR-FRET displacement), KRas Q61H; conditions: TR-FRET displacement
KRas WT = KRas WT (Homo sapiens, UniProt P01116); test: KRas binding assay (TR-FRET displacement), KRas WT; conditions: TR-FRET displacement
KRas G12S = KRas G12S (Homo sapiens, UniProt P01116, G12S); type: binding; conditions: TR-FRET displacement, read-out: Binding to KRas (IC50 nM) G12S
KRas G12C = KRas G12C (Homo sapiens, UniProt P01116, G12C); type: binding; conditions: TR-FRET displacement, read-out: Binding to KRas (IC50 nM) G12C
KRas G12A = KRas G12A (Homo sapiens, UniProt P01116, G12A); type: binding; conditions: TR-FRET displacement, read-out: Binding to KRas (IC50 nM) G12A
KRas G13D = KRas G13D (Homo sapiens, UniProt P01116, G13D); type: binding; conditions: TR-FRET displacement, read-out: Binding to KRas (IC50 nM) G13D
A549 cells = test: Inhibition of KRas-mediated phosphorylation of ERK (Cisbio HTRF pERK), A549 cells; type: cell-based; conditions: Homo sapiens, single point at 100 nM, 3 hrs compound incubation
H460 cells = test: Inhibition of KRas-mediated phosphorylation of ERK (Cisbio HTRF pERK), H460 cells; type: cell-based; conditions: Homo sapiens, NCI-H460, single point at 100 nM, 3 hrs compound incubation
ASPC1 cells = test: Inhibition of KRas-mediated phosphorylation of ERK (Cisbio HTRF pERK), ASPC1 cells; type: cell-based; conditions: Homo sapiens, ASPC1, 3 h, AsPC-1 cells; 3 hr compound incubation; Cisbio pERK HTRF
HCT116 cells = test: Inhibition of KRas-mediated phosphorylation of ERK (Cisbio HTRF pERK), HCT116 cells; type: cell-based; conditions: Homo sapiens, HCT-116, single point at 100 nM, 3 hrs compound incubation
H358 cells = test: Inhibition of KRas-mediated phosphorylation of ERK (Cisbio HTRF pERK), H358 cells; type: cell-based; conditions: Homo sapiens, NCI-H358, single point at 100 nM, 3 hrs compound incubation

| IC50 (KRas Q61H) [nM] | IC50 (KRas WT) [nM] | IC50 (KRas G12S) [nM] | IC50 (KRas G12C) [nM] | IC50 (KRas G12A) [nM] | IC50 (KRas G13D) [nM] | IC50 (ASPC1 cells) [nM] | SMILES | inhibition at 0.1 µM (A549 cells) [%] | inhibition at 0.1 µM (H460 cells) [%] | inhibition at 0.1 µM (HCT116 cells) [%] | inhibition at 0.1 µM (H358 cells) [%] |
| --- | --- | --- | --- | --- | --- | --- | --- | --- | --- | --- | --- |
| 63 | 111 | 151 | 158 | 175 | 87 |  | CCc1cccc2cccc(N3CCc4c(nc(OCC5(CN(C)C)CC5)nc4NCC(O)Cn4cccn4)C3)c12 (centres unmarked) [Example 526, 1-((2-((1-((dimethylamino)methyl)cyclopropyl)methoxy)-7-(8-ethylnaphthalen-1-yl)-5,6,7,8-tetrahydropyrido[3,4-d]pyrimidin-4-yl)amino)-3-(1H-pyrazol-1-yl)propan-2-ol] |  |  |  |  |
| 5380 | 5200 | 5890 | 4500 | 4760 | 4070 |  | Cc1cc2[nH]nnc2c(N2CCc3c(nc(OCC45CCCN4CCC5)nc3N3CCOC[C@@](C)(O)C3)C2)c1C [Example 638, (S)-4-(7-(5,6-dimethyl-1H-benzo[d][1,2,3]triazol-4-yl)-2-((tetrahydro-1H-pyrrolizin-7a(5H)-yl)methoxy)-5,6,7,8-tetrahydropyrido[3,4-d]pyrimidin-4-yl)-6-methyl-1,4-oxazepan-6-ol] |  |  |  |  |
| 5210 | 4070 | 4940 | 4740 | 5410 | 3960 |  | Nc1nc2c(N3CCc4c(nc(OCC56CCCN5CCC6)nc4N4CCCC5(C4)NC(=O)NC5=O)C3)ccc(F)c2s1 (centres unmarked) [Example 626, 7-(7-(2-amino-7-fluorobenzo[d]thiazol-4-yl)-2-((tetrahydro-1H-pyrrolizin-7a(5H)-yl)methoxy)-5,6,7,8-tetrahydropyrido[3,4-d]pyrimidin-4-yl)-1,3,7-triazaspiro[4.5]decane-2,4-dione] |  |  |  |  |
| 2590 | 1910 | 757 | 385 | 441 | 2460 |  | CCc1cccc2cccc(N3CCc4c(nc(OCC5(CN(C)C)CC5)nc4N4CCCC(c5nc(N)n(C)n5)C4)C3)c12 (centres unmarked) [Example 523, 3-(1-(2-((1-((dimethylamino)methyl)cyclopropyl)methoxy)-7-(8-ethylnaphthalen-1-yl)-5,6,7,8-tetrahydropyrido[3,4-d]pyrimidin-4-yl)piperidin-3-yl)-1-methyl-1H-1,2,4-triazol-5-amine] |  |  |  |  |
| 4400 | 4940 | 2830 | 1500 | 2690 | 5620 |  | CCc1cccc2cccc(N3CCc4c(nc(OCC56CCCN5CCC6)nc4N4CCCc5[nH]cnc5C4)C3)c12 [Example 477, 5-(7-(8-ethylnaphthalen-1-yl)-2-((hexahydro-1H-pyrrolizin-7a-yl)methoxy)-5,6,7,8-tetrahydropyrido[3,4-d]pyrimidin-4-yl)-1,4,5,6,7,8-hexahydroimidazo[4,5-c]azepine] |  |  |  |  |
| 61 | 52 | 67 | 56 | 58 | 57 |  | CCc1cccc2cccc(N3CCc4c(nc(OCC56CCCN5CCC6)nc4N4CCC(O)CC(S(C)(=O)=O)C4)C3)c12 (single isomer, unassigned) [Example 480, 1-(7-(8-ethylnaphthalen-1-yl)-2-((tetrahydro-1H-pyrrolizin-7a(5H)-yl)methoxy)-5,6,7,8-tetrahydropyrido[3,4-d]pyrimidin-4-yl)-6-(methylsulfonyl)azepan-4-ol] |  |  |  |  |
| 11300 | 11300 | 8610 | 6990 | 8970 | 19100 |  | CCc1cccc2cccc(N3CCc4c(nc(OCC56CCCN5CCC6)nc4N4CCn5ncc(P(C)(C)=O)c5C4)C3)c12 [Example 475, (5-(7-(8-ethylnaphthalen-1-yl)-2-((tetrahydro-1H-pyrrolizin-7a(5H)-yl)methoxy)-5,6,7,8-tetrahydropyrido[3,4-d]pyrimidin-4-yl)-4,5,6,7-tetrahydropyrazolo[1,5-a]pyrazin-3-yl)dimethylphosphine oxide] |  |  |  |  |
|  |  |  |  |  |  | 441 | CCc1c(F)ccc2cc(O)cc(N3CCc4c(nc(OC[C@@]56CCCN5C[C@H](F)C6)nc4N4CCCn5nc(CNS(C)(=O)=O)cc5C4)C3)c12 [Example 305, N-((5-(7-(8-ethyl-7-fluoro-3-hydroxynaphthalen-1-yl)-2-(((2R,7aS)-2-fluorohexahydro-1H-pyrrolizin-7a-yl)methoxy)-5,6,7,8-tetrahydropyrido[3,4-d]pyrimidin-4-yl)-5,6,7,8-tetrahydro-4H-pyrazolo[1,5-a][1,4]diazepin-2-yl)methyl)methanesulfonamide] | 4 | 6 | 18 | 9 |
| 27100 | 20200 | 26900 | 15000 | 25100 | 31600 |  | CCc1cccc2cccc(N3CCc4c(nc(OCC5(CN(C)C)CC5)nc4NCc4nc(C5(O)CCOCC5)n[nH]4)C3)c12 [Example 525, 4-(5-(((2-((1-((dimethylamino)methyl)cyclopropyl)methoxy)-7-(8-ethylnaphthalen-1-yl)-5,6,7,8-tetrahydropyrido[3,4-d]pyrimidin-4-yl)amino)methyl)-1H-1,2,4-triazol-3-yl)tetrahydro-2H-pyran-4-ol] |  |  |  |  |
| 21300 | 12600 | 17600 | 13100 | 12700 | 20000 |  | CCc1cccc2cccc(N3CCc4c(nc(OCC56CCCN5CCC6)nc4C4CCCOCC4)C3)c12 (centres unmarked) [Example 478, 7-(8-ethylnaphthalen-1-yl)-2-((hexahydro-1H-pyrrolizin-7a-yl)methoxy)-4-(oxepan-4-yl)-5,6,7,8-tetrahydropyrido[3,4-d]pyrimidine] |  |  |  |  |
| 17800 | 12900 | 15500 | 16500 | 13000 | 11300 |  | CC1(O)CCCN(c2nc(OCC34CCCN3CCC4)nc3c2CCN(c2ccc(F)c4sc(N)nc24)C3)C1 (centres unmarked) [Example 625, 1-(7-(2-amino-7-fluorobenzo[d]thiazol-4-yl)-2-((tetrahydro-1H-pyrrolizin-7a(5H)-yl)methoxy)-5,6,7,8-tetrahydropyrido[3,4-d]pyrimidin-4-yl)-3-methylpiperidin-3-ol] |  |  |  |  |
| 900 | 719 | 571 | 661 | 619 | 566 |  | Cc1cc2[nH]nnc2c(N2CCc3c(nc(OCC45CCCN4CCC5)nc3N3CCCC4(CNS(=O)(=O)N4)C3)C2)c1C (centres unmarked) [Example 639, 7-(7-(5,6-dimethyl-1H-benzo[d][1,2,3]triazol-4-yl)-2-((tetrahydro-1H-pyrrolizin-7a(5H)-yl)methoxy)-5,6,7,8-tetrahydropyrido[3,4-d]pyrimidin-4-yl)-2-thia-1,3,7-triazaspiro[4.5]decane 2,2-dioxide] |  |  |  |  |
| 1020 | 754 | 281 | 289 | 503 | 1200 |  | CCc1cccc2cccc(N3CCc4c(nc(OCC5(CN(C)C)CC5)nc4N4CCCC(c5cn(C)nn5)C4)C3)c12 (centres unmarked) [Example 522, 1-(1-(((7-(8-ethylnaphthalen-1-yl)-4-(3-(1-methyl-1H-1,2,3-triazol-4-yl)piperidin-1-yl)-5,6,7,8-tetrahydropyrido[3,4-d]pyrimidin-2-yl)oxy)methyl)cyclopropyl)-N,N-dimethylmethanamine] |  |  |  |  |
| 455 | 432 | 690 | 251 | 438 | 506 |  | CCc1cccc2cccc(N3CCc4c(nc(OCC5(CN(C)C)CC5)nc4N4CCOC5COCC5C4)C3)c12 (centres unmarked) [Example 521, 1-(1-(((7-(8-ethylnaphthalen-1-yl)-4-(hexahydrofuro[3,4-f][1,4]oxazepin-4(5H)-yl)-5,6,7,8-tetrahydropyrido[3,4-d]pyrimidin-2-yl)oxy)methyl)cyclopropyl)-N,N-dimethylmethanamine] |  |  |  |  |
| 547 | 357 | 405 | 382 | 362 | 337 |  | CCc1c(F)ccc2cc(O)cc(N3CCc4c(nc(N5CC(N(C)C)C5)nc4N4CCC[C@@](C)(O)C4)C3)c12 [Example 434, (R)-1-(2-(3-(dimethylamino)azetidin-1-yl)-7-(8-ethyl-7-fluoro-3-hydroxynaphthalen-1-yl) -5,6,7,8-tetrahydropyrido [3,4-d]pyrimidin-4-yl)-3-methylpiperidin-3-ol] |  |  |  |  |
